Laboratory results published in the supplement of paper PMC4967469.

Columns and labels:
Experiment in all cases: Viability of human cancer cell lines after 72 h of drug (GDSC screen)
[1] = compound: O=C(/C=C/c1ccc(CN(CCO)CCc2c[nH]c3ccccc23)cc1)NO [LAQ824]; settings: top dose 1.024 µM; top dose inferred
Procedure: (§1)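 Human cancer cell lines in 384-well plates, medium with 10% serum, drug for 72 h over a 256-fold dose range (nine 2-fold or five 4-fold steps up to the top dose). Adherent lines were fixed and stained with the nucleic acid dye Syto60, suspension lines read with resazurin; signal relative to control wells, capped at 0 and 100%. One two-parameter sigmoid per drug and line, fitted in a mixed model over all curves with the slope shared within a line.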

[2] = compound: CN(NC(=O)CC(=O)NN(C)C(=S)c1ccccc1)C(=S)c1ccccc1 [Elesclomol]; settings: top dose 0.2 µM; top dose inferred
Procedure: as §1

[3] = compound: O=C(Nc1ccc(OC(F)(F)F)cc1)c1sccc1NCc1ccnc2ccccc12 [OSI-930]; settings: top dose 10.24 µM
Procedure: as §1

[4] = compound: O=S(=O)(O)c1ccc2cc(N=Nc3cc(S(=O)(=O)O)c4cccnc4c3O)ccc2c1 [NSC-87877]; settings: top dose 16 µM; top dose inferred
Procedure: as §1

[5] = compound: CCCC(=O)OCc1ccc(OC(=O)/C=C(C)/C=C/C=C(C)/C=C/C2=C(C)CCCC2(C)C)cc1 [VNLG/124]; settings: top dose 5.12 µM; top dose inferred
Procedure: as §1

[6] = compound: O=C(Nc1cccc(Nc2ncc(Br)c(NCCc3cnc[nH]3)n2)c1)N1CCCC1 [BX-912]; settings: top dose 10.24 µM; top dose inferred
Procedure: as §1

[7] = compound: Cc1c(N)nc([C@H](CC(N)=O)NC[C@H](N)C(N)=O)nc1C(=O)N[C@H](C(=O)N[C@H](C)[C@@H](O)[C@H](C)C(=O)N[C@H](C(=O)NCCc1nc(-c2nc(C(=O)NCCC[S+](C)C)cs2)cs1)[C@@H](C)O)[C@@H](OC1OC(CO)C(O)C(O)C1OC1OC(CO)C(O)C(OC(N)=O)C1O)c1cnc[nH]1 [Bleomycin]
Procedure: as §1

[8] = compound: Cc1ccc(NC(=O)c2ccc(CN3CCN(C)CC3)cc2)cc1Nc1nc(-c2cccnc2)cs1 [Masitinib]; settings: top dose 20 µM
Procedure: as §1

[9] = compound: COc1cc(N2CCC(C(N)=O)CC2)ccc1Nc1nc(N)c(Cl)c(Nc2ccccc2S(=O)(=O)C(C)C)n1 [HG-5-88-01]; settings: top dose 10 µM; top dose inferred
Procedure: as §1

[10] = top dose 50 µM, screen: GDSC drug entry 1378, top dose inferred
[11] = top dose 64 µM, screen: GDSC drug entry 190

Cell Line | AUC [1] | IC50 [1] [µM] | AUC [2] | IC50 [2] [µM] | AUC [3] | IC50 [3] [µM] | AUC [4] | IC50 [4] [µM] | AUC [5] | IC50 [5] [µM] | AUC [6] | IC50 [6] [µM] | AUC [7, 10] | IC50 [7, 10] [µM] | AUC [7, 11] | IC50 [7, 11] [µM] | AUC [8] | IC50 [8] [µM] | AUC [9] | IC50 [9] [µM]
451Lu (melanoma, adherent) | 0.34 | 0.0235 | 0.748 | 0.0619 | 0.975 | > 10.2 | 0.98 | > 16 | 0.982 | > 5.12 | 0.98 | > 10.2 | 0.953 | > 50 | 0.384 | 1.95 | 0.957 | > 20 | 0.983 | > 10
A498 (kidney, adherent) | 0.882 | > 1.02 | 0.683 | 0.0528 | 0.97 | > 10.2 | 0.976 | > 16 | 0.977 | > 5.12 | 0.96 | > 10.2 | 0.481 | 2.7 | 0.908 | > 64 | 0.865 | > 20 | 0.956 | > 10
A2058 (melanoma, adherent) | 0.52 | 0.0721 | 0.653 | 0.0316 | 0.978 | > 10.2 | 0.99 | > 16 | 0.985 | > 5.12 | 0.811 | 4.74 | 0.487 | 2.88 | 0.239 | 0.78 | 0.899 | > 20 | 0.949 | > 10
AGS (stomach, adherent) | 0.317 | 0.0209 | 0.062 | < 0.000781 | 0.979 | > 10.2 | 0.99 | > 16 | 0.985 | > 5.12 | 0.964 | > 10.2 | 0.249 | 0.653 | 0.227 | 0.716 | 0.974 | > 20 | 0.929 | > 10
AU565 (breast, adherent) | 0.323 | 0.0193 | 0.498 | 0.0124 | 0.963 | > 10.2 | 0.916 | > 16 | 0.93 | > 5.12 | 0.973 | > 10.2 | 0.931 | > 50 | 0.434 | 2.58 | 0.883 | > 20 | 0.928 | > 10
AsPC-1 (pancreas, adherent) | 0.513 | 0.0713 | 0.652 | 0.0447 | 0.975 | > 10.2 | – | – | 0.966 | > 5.12 | 0.969 | > 10.2 | 0.896 | > 50 | 0.824 | > 64 | 0.974 | > 20 | 0.792 | 8.92
BT-20 (breast, adherent) | 0.717 | 0.311 | 0.662 | 0.0396 | 0.964 | > 10.2 | 0.978 | > 16 | 0.978 | > 5.12 | 0.964 | > 10.2 | 0.695 | 12.7 | 0.419 | 2.27 | 0.928 | > 20 | 0.982 | > 10
BT-474 (breast, adherent) | 0.445 | 0.0446 | 0.56 | 0.0186 | 0.927 | > 10.2 | 0.968 | > 16 | 0.986 | > 5.12 | 0.964 | > 10.2 | 0.96 | > 50 | 0.979 | > 64 | 0.848 | 17.7 | 0.954 | > 10
CAPAN-1 (pancreas, adherent) | 0.629 | 0.152 | 0.659 | 0.0364 | 0.987 | > 10.2 | 0.967 | > 16 | 0.987 | > 5.12 | 0.961 | > 10.2 | 0.892 | > 50 | 0.334 | 1.3 | 0.967 | > 20 | 0.985 | > 10
Capan-2 (pancreas, adherent) | 0.685 | 0.238 | 0.938 | > 0.2 | 0.975 | > 10.2 | 0.98 | > 16 | 0.982 | > 5.12 | 0.93 | > 10.2 | 0.845 | 48 | 0.691 | 15.5 | 0.944 | > 20 | 0.866 | > 10
ES-2 (ovary, adherent) | 0.672 | 0.18 | 0.353 | 0.00519 | 0.975 | > 10.2 | 0.982 | > 16 | 0.991 | > 5.12 | 0.929 | > 10.2 | 0.25 | 0.666 | 0.417 | 2.44 | 0.9 | > 20 | 0.99 | > 10
EVSA-T (breast, adherent) | 0.489 | 0.0601 | 0.682 | 0.037 | 0.968 | > 10.2 | 0.985 | > 16 | 0.98 | > 5.12 | 0.983 | > 10.2 | 0.555 | 4.33 | 0.966 | > 64 | 0.885 | 16.4 | 0.991 | > 10
HCC38 (breast, adherent) | 0.362 | 0.0257 | 0.882 | > 0.2 | 0.986 | > 10.2 | 0.942 | > 16 | 0.984 | > 5.12 | 0.936 | > 10.2 | 0.651 | 8.52 | 0.128 | < 0.25 | 0.973 | > 20 | 0.984 | > 10

IC50 is the fitted dose that halves viability relative to control wells, and lower means more sensitive; a fit beyond the top or the lowest dose is shown as a bound at that dose. AUC sums up the same curve from the lowest dose to the 256-fold higher top dose: 1 means no effect, lower means more sensitive. For part of these data: Any top dose called inferred comes from the curve model; the source does not state it. For part of these data: Drugs with an entry number were screened twice under separate entries, and the two screens often disagree.
